Results as given in the supplement of paper PMC3724861.
The list shows a part of the results.

These sequences were tested on T1, Caupolican (Caup) homeodomain DNA-binding domain (assay: PBM E-score (8-mer, recovered from the published 9-mer minima) (E-score (dimensionless, -0.5 to 0.5)); Drosophila protein; higher = stronger relative binding preference, active = 0.31 or more).
T1 sequence: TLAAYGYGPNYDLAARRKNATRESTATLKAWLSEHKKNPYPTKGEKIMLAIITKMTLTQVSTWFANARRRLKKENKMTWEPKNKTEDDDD
Outline: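 Caup's homeodomain DNA-binding domain (residues 214-303) was produced by in vitro transcription and translation and applied at 100 nM to custom-designed protein binding microarrays. Each value is an enrichment score giving relative binding preference for a short DNA word; higher means stronger. Published 9-mer scores were the minimum of their two constituent 8-mer scores, and the 8-mer values were recovered from those minima. A cutoff of 0.31 marks candidate binding sequences.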

Row | Sequence | PBM E-score
1 | AAATTTCC | inactive: 0.00428
2 | AGTAGGAT | inactive: 0.0263
3 | AGCTGCAT | inactive: -0.0587
4 | CACCTACG | inactive: -0.128
5 | ATACTAGA | inactive: 0.213
6 | AACGACTG | inactive: 0.0234
7 | CGCGGGTA | inactive: -0.00391
8 | GTTCCATA | inactive: 0.0906
9 | CAGCAAGG | inactive: -0.0187
10 | GAGGAAGA | inactive: -0.0993
11 | ACAAATGT | active: ≥ 0.311
12 | AGGGATGA | inactive: -0.0456
13 | CAGTGGCA | inactive: -0.12
14 | CAGAATTA | inactive: 0.0504
15 | ACATCTGA | inactive: 0.183
16 | ATATCAAT | inactive: 0.127
17 | GCGATACA | inactive: 0.217
18 | ATGGCCCC | inactive: -0.175
19 | CGAAGTAA | inactive: -0.00995
20 | CTAGATAA | inactive: 0.0488

Row | Sequence | PBM E-score
21 | ATCCTCTG | inactive: -0.0182
22 | AATTGCAT | inactive: 0.0474
23 | CCGCGCTA | inactive: -0.145
24 | ATACGGCA | inactive: 0.0372
25 | AACACTAG | inactive: 0.17
26 | ACGTGTAT | active: 0.353
27 | CTAACGAC | inactive: 0.0213
28 | GGTTTAGA | inactive: 0.00471
29 | AAGATCCG | inactive: -0.128
30 | ACTGTGCC | inactive: -0.121
31 | CCCTGAGA | inactive: -0.156
32 | CCAACGTA | inactive: 0.0596
33 | ATCCATGC | inactive: -0.0207
34 | GGACAACC | inactive: 0.169
35 | CGAGGCCC | inactive: -0.232
36 | AACCTCCG | inactive: -0.143
37 | TGAAACAA | inactive: 0.188
38 | TACGCAGA | inactive: 0.0132
39 | ATCTGGGG | inactive: -0.182
40 | TAGTATAA | inactive: 0.167

Row | Sequence | PBM E-score
41 | AAAGCCCT | inactive: -0.0941
42 | GCGTCCCA | inactive: -0.2
43 | CGTAAGAC | inactive: -0.0308
44 | GTGTACCA | inactive: 0.308
45 | CCAGGACC | inactive: -0.169
46 | CTCGCGTA | inactive: -0.0439
47 | GATGTGGC | inactive: -0.0679
48 | GAGCGGAC | inactive: -0.217
49 | TATATCGA | inactive: 0.0973
50 | ATTCACTA | inactive: 0.0725
51 | TGCACCCA | inactive: -0.046
52 | CAACGTGG | inactive: -0.0105
53 | CCAACCCC | inactive: -0.162
54 | ACCATTAC | inactive: 0.108
55 | AGGTAGAC | inactive: 0.0513
56 | ATAGGGTC | inactive: -0.00095
57 | GACTTCTC | inactive: -0.0701
58 | CATTGTCA | inactive: 0.207
59 | CGAAAGCA | inactive: 0.0429
60 | ACTGAGCC | inactive: -0.118
